Experimental data published in the supplement of paper PMC4723716.
± gives the uncertainty stated by the source. Whole data set: some 9,900 compounds, median “viability index relative to DMSO control” near 1, cut for the lowest 2% near 0.85. This is one part of the list.

test system: Plasmodium falciparum NF54 stage V gametocytes; test: viability index relative to DMSO control (fraction); higher = less gametocyte killing; settings: 2.5 µM, library set: Broad Institute DOS, incubation time: 72 h
Procedure, shortened: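 Compound at 2.5 µM was incubated for 72 hr at 37°C under low oxygen with P. falciparum NF54 stage V gametocytes (0.75% gametocytemia, 1.25% hematocrit, 10 µl, serum-free screening medium) in 1,536-well plates. Staining used 3 µl of 2.5 µM MitoTracker Red CMXRos plus 0.13% saponin for one to two hours, and red particles of 20–70 µm2 were counted in one imaged field per well. Each viability index is that count relative to the plate mean of solvent-only wells.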

**Q.** O=C(NC1Cc2ccccc2C1)[C@@H]1N[C@@H]2c3cccc(=O)n3C[C@@H]2[C@H]1CO was tested. Which viability index did it give?
**A.** Its viability index is 1.09 ± 0.11.

**Q.** How did the viability index turn out when COc1ccccc1CNC(=O)C[C@H]1C=C[C@H](NC(=O)CC2CC2)[C@H](CO)O1 was run?
**A.** Its viability index is 1.02 ± 0.13.

**Q.** For COc1cccc(NC(=O)N2CC(=O)N3[C@H](CO)[C@H](c4ccc(C#CCC5CCCC5)cc4)[C@H]3C2)c1, which viability index is on record?
**A.** Its viability index is 0.9813 ± 0.0041.

**Q.** How did the viability index turn out when Cc1cccc(S(=O)(=O)N[C@H]2CC[C@H](CCNC(=O)Nc3cc(F)ccc3F)O[C@@H]2CO)c1 was run?
**A.** The viability index was 1.14 ± 0.13.

**Q.** How did the viability index turn out when CN(C)C(=O)C[C@@H]1CC[C@H]2[C@@H](COC[C@H](O)CN2C(=O)C2CCOCC2)O1 was run?
**A.** The viability index was 1.08 ± 0.039.

**Q.** Which viability index does the source give for O=C(Cc1ccccc1)N1C[C@@H]2[C@H](c3ccccc31)[C@@H](CO)N2S(=O)(=O)c1ccccc1 here?
**A.** The viability index was 1.01 ± 0.043.

**Q.** With C[C@H](NC(=O)[C@H]1[C@H](CO)[C@H]2Cn3c(ccc(-c4ccccc4F)c3=O)[C@@H]1N2)c1ccccc1 as the compound, how does the viability index read?
**A.** The viability index was 1.07 ± 0.055.

**Q.** With O=C(N[C@@H]1C=C[C@H](CC(=O)N2CCC(Cc3ccccc3)CC2)O[C@@H]1CO)c1cnccn1 as the compound, how does the viability index read?
**A.** The viability index was 0.991 ± 0.1.

**Q.** CS(=O)(=O)N1[C@@H](C#N)[C@@H](c2ccccc2-c2ccccc2F)[C@@H]1CO was tested. Which viability index did it give?
**A.** The viability index was 1.06 ± 0.14.

**Q.** For CCCC(=O)Nc1ccc2c(c1)OC[C@@H](C)N(S(=O)(=O)c1cn(C)cn1)C[C@H](C)[C@@H](OC)CN(C)C2=O, which viability index is on record?
**A.** The viability index was 1.07 ± 0.024.

**Q.** With O=C(c1ccccn1)N1CC2(C1)[C@H](c1ccccc1)[C@H](CO)N2C(=O)C1CCCCC1 as the compound, how does the viability index read?
**A.** Its viability index is 1.1 ± 0.094.

**Q.** How did the viability index turn out when CCCNC(=O)N1[C@H](C#N)[C@@H](c2ccccc2-c2ccccc2F)[C@H]1CO was run?
**A.** The viability index was 0.928 ± 0.022.

**Q.** For C[C@@H]1CCCCO[C@H](CN(C)C(=O)CCCN(C)C)[C@H](C)CN([C@@H](C)CO)C(=O)c2cc(NS(=O)(=O)c3ccc(Cl)cc3)ccc2O1, which viability index is on record?
**A.** The viability index was 1.06 ± 0.021.

**Q.** For Cc1cc(C(=O)Nc2ccc3c(c2)C(=O)N(C)[C@H]2CC[C@H](CC(=O)NCc4ccc(-c5ccccc5)cc4)O[C@@H]2CO3)no1, which viability index is on record?
**A.** The viability index was 1.13 ± 0.14.

**Q.** How did the viability index turn out when CN(C)CC(=O)N1[C@H](C#N)[C@@H](c2ccccc2-c2ccccc2F)[C@H]1CO was run?
**A.** Its viability index is 1.16 ± 0.031.

**Q.** With Cc1ccc(S(=O)(=O)N(C)C[C@H]2Oc3cc(C#CC4CCCC4)ccc3S(=O)(=O)N([C@@H](C)CO)C[C@@H]2C)cc1 as the compound, how does the viability index read?
**A.** Its viability index is 0.705 ± 0.12.

**Q.** For COc1ccc(CN(C)C[C@H]2OCc3cnnn3CCCC(=O)N([C@H](C)CO)C[C@@H]2C)cc1, which viability index is on record?
**A.** The viability index was 0.971 ± 0.023.

**Q.** Which viability index does the source give for CC(C)C#Cc1ccc([C@H]2[C@H]3CN(S(=O)(=O)c4ccccc4)CC(=O)N3[C@H]2CO)cc1 here?
**A.** The viability index was 1.06 ± 0.086.

**Q.** With C[C@H]1CN([C@@H](C)CO)C(=O)CCCn2cc(nn2)CO[C@@H]1CN(C)C(=O)Nc1cccc(C(F)(F)F)c1 as the compound, how does the viability index read?
**A.** The viability index was 0.982 ± 0.018.

**Q.** With COCC#Cc1ccc2c(c1)O[C@H](CN(C)C(=O)C1CCOCC1)[C@H](C)CN([C@H](C)CO)S2(=O)=O as the compound, how does the viability index read?
**A.** The viability index was 1.06 ± 0.035.

**Q.** With C[C@H]1CCCCO[C@@H](CN(C)C(=O)Nc2ccc(C(F)(F)F)cc2)[C@@H](C)CN([C@@H](C)CO)C(=O)c2cc(NS(=O)(=O)c3cn(C)cn3)ccc2O1 as the compound, how does the viability index read?
**A.** The viability index was 1.11 ± 0.042.

**Q.** CCS(=O)(=O)N1CCCCN2[C@H](C1)[C@@H](c1ccc(C#Cc3ccccn3)cc1)[C@@H]2CO was tested. Which viability index did it give?
**A.** The viability index was 0.954 ± 0.026.

**Q.** How did the viability index turn out when Cc1noc(C)c1S(=O)(=O)Nc1cccc2c1O[C@H](CN(C)Cc1ccc(C(F)(F)F)cc1)[C@H](C)CN([C@H](C)CO)C2=O was run?
**A.** Its viability index is 1.04 ± 0.023.

**Q.** C[C@H](CO)N1C[C@H](C)[C@@H](CN(C)C(=O)NC2CCCCC2)OCc2ccccc2-c2c(n(C)c3ccccc23)C1=O was tested. Which viability index did it give?
**A.** Its viability index is 0.967 ± 0.086.

**Q.** How did the viability index turn out when CO[C@H]1CN(C)C(=O)c2cc(NS(=O)(=O)CC(F)(F)F)ccc2OC[C@H](C)NC[C@@H]1C was run?
**A.** The viability index was 1.03 ± 0.046.

**Q.** How did the viability index turn out when C[C@@H]1CCCCO[C@H](CN(C)C(=O)Nc2ccc(C(F)(F)F)cc2)[C@@H](C)CN([C@H](C)CO)C(=O)c2cc(NS(=O)(=O)c3cn(C)cn3)ccc2O1 was run?
**A.** The viability index was 1.053 ± 0.004.

**Q.** How did the viability index turn out when C[C@H](CO)N1C[C@H](C)[C@H](CN(C)C(=O)Cc2ccccc2)OCCCC[C@H](C)Oc2ccc(NS(C)(=O)=O)cc2C1=O was run?
**A.** The viability index was 1.05 ± 0.042.

**Q.** For C[C@H]1CCCCO[C@H](CN(C)Cc2ccc3c(c2)OCO3)[C@@H](C)CN([C@@H](C)CO)C(=O)c2cc(NS(=O)(=O)c3cn(C)cn3)ccc2O1, which viability index is on record?
**A.** Its viability index is 1.029 ± 0.0079.

**Q.** Which viability index does the source give for C[C@@H]1CCCCO[C@H](CN(C)CC2CCCCC2)[C@H](C)CN([C@H](C)CO)C(=O)c2cc(NS(C)(=O)=O)ccc2O1 here?
**A.** The viability index was 1.1075 ± 0.00055.

**Q.** O=C(C[C@@H]1CC[C@@H]2[C@H](COC[C@H](O)CN2Cc2cc(F)cc(F)c2)O1)Nc1nccs1 was tested. Which viability index did it give?
**A.** The viability index was 0.919 ± 0.096.

**Q.** For C/C=C/c1ccc([C@H]2[C@@H](CO)N(C(=O)CC)[C@H]2CN(C)Cc2cncnc2)cc1, which viability index is on record?
**A.** Its viability index is 0.9998 ± 0.0083.

**Q.** For COCC(=O)N1C[C@@]2(C1)CN(Cc1cccc(F)c1)[C@H](CO)c1c2c2ccc(OC)cc2n1C, which viability index is on record?
**A.** The viability index was 1.1273 ± 0.00085.

**Q.** For C[C@H]1CN([C@@H](C)CO)C(=O)c2ccccc2-c2ccccc2CO[C@H]1CN(C)S(=O)(=O)c1ccc([N+](=O)[O-])cc1, which viability index is on record?
**A.** Its viability index is 0.969 ± 0.086.

**Q.** For CN(C)C(=O)C[C@H]1CC[C@H]2[C@@H](COC[C@H](O)CN2C(=O)C2CCOCC2)O1, which viability index is on record?
**A.** Its viability index is 1.08 ± 0.043.

**Q.** For C[C@@H]1CCCCO[C@H](CN(C)C(=O)c2ccncc2)[C@@H](C)CN([C@H](C)CO)C(=O)c2cc(NC(=O)CCC(F)(F)F)ccc2O1, which viability index is on record?
**A.** The viability index was 1.11 ± 0.097.

**Q.** Which viability index does the source give for Cc1noc(C)c1NC(=O)Nc1ccc2c(c1)C(=O)N([C@H](C)CO)C[C@H](C)[C@@H](CN(C)S(=O)(=O)c1cccs1)OCCCC[C@@H](C)O2 here?
**A.** The viability index was 1.04 ± 0.051.

**Q.** How did the viability index turn out when O=C(c1cnccn1)N1CC(=O)N2[C@H](CO)[C@@H](c3ccc(-c4cccc(F)c4)cc3)[C@H]2C1 was run?
**A.** Its viability index is 0.966 ± 0.05.

**Q.** Which viability index does the source give for CO[C@H]1CN(C)C(=O)c2cc(NC(=O)c3ccc(F)cc3)ccc2OC[C@H](C)N(C(=O)CC2CC2)C[C@H]1C here?
**A.** Its viability index is 1.14 ± 0.066.

**Q.** Which viability index does the source give for C[C@@H]1CCCCO[C@H](CN(C)Cc2ccc(C(F)(F)F)cc2)[C@@H](C)CN([C@H](C)CO)C(=O)c2cc(NC(=O)Nc3cccc4ccccc34)ccc2O1 here?
**A.** Its viability index is 1.1 ± 0.099.

**Q.** COc1ccc(C#Cc2ccc3c(c2)[C@@H]2[C@@H](CCN2S(=O)(=O)c2ccccc2C)[C@H](CO)N3C)cc1 was tested. Which viability index did it give?
**A.** The viability index was 1.08 ± 0.013.

**Q.** With CN1C(=O)c2cc(NC(=O)Cc3cccs3)ccc2OC[C@H]2O[C@H](CC(=O)NCC3CCCCC3)CC[C@H]21 as the compound, how does the viability index read?
**A.** The viability index was 1.191 ± 0.0061.

**Q.** For C[C@H]1CN([C@@H](C)CO)C(=O)c2cc(-c3cccc(C#N)c3)cnc2O[C@H]1CN(C)C(=O)C1CCOCC1, which viability index is on record?
**A.** The viability index was 0.988 ± 0.011.
